According to PubChem BioAssay AID1030 (National Center for Advancing Translational Sciences (NCATS), 2008):
Among all 220,000 compounds or so, about 16,000 (7.3%) were called active. Inconclusive results, whose numbers are uncertain, are shown with a selection of clear calls. Calls come from the whole dose curve; as a rule, active = well fitted inhibition curve with a large enough effect (not every such curve was filed as active); inconclusive = small, poorly fitted or top-dose-only effect, or another doubt; inactive = no such curve, though single readings can be large or run the other way. No potency is given beside an inconclusive call; the fits are too rough.

molecular target: Aldehyde dehydrogenase 1A1 (Homo sapiens) (UniProt P00352); assay: qHTS Assay for Inhibitors of Aldehyde Dehydrogenase 1 (ALDH1A1); details: Purified ALDH1A1, NADH fluorescence, propionaldehyde substrate; series mostly up to 75.3 µM; activity, negative = inhibition: at the top concentration;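 for activity, negative = inhibition: plate controls were no enzyme wells and a reference inhibitor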
Potency is the fitted concentration of half-maximal effect; tags give direction and shape of the fitted curve.

Sequence of UniProt P00352 (P00352 whole entry, looked up): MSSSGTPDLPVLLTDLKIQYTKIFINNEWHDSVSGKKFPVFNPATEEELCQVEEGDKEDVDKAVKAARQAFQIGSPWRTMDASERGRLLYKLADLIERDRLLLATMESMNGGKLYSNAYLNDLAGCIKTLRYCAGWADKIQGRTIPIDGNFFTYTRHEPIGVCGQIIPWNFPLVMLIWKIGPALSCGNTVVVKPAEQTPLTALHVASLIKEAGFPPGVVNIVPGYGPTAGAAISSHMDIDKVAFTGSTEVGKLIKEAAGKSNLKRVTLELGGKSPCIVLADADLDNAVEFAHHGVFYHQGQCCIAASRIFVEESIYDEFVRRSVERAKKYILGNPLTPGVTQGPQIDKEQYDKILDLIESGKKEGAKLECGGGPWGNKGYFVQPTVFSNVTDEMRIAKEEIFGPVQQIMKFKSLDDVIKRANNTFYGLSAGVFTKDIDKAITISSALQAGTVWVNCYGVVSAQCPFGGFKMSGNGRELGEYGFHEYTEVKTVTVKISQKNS

SMILES | activity, negative = inhibition | Potency
O=C(N[C@@H](Cc1ccccc1)C(=O)NC1CCCCC1)c1ccco1 | inactive: -5.53% | 
Nc1nc(NCc2ccco2)nc(N2CCCCCC2)c1[N+](=O)[O-] |  | active: 1.58 µM
COc1ccc(-c2csc(N3CCN(C(=O)c4ccco4)CC3)n2)cc1 |  | active: 28.2 µM
COc1cccc(C2C(C(=O)c3sc(C)nc3C)=C(O)C(=O)N2CCN2CCOCC2)c1 (configuration not stated) |  | active: 20 µM
COCCCNC(=S)NCCNc1nc2cc(C)cc(C)c2cc1C#N |  | inconclusive [inhibitor, single point]
CC1(C)Cn2c(nnc2-c2cccc(O)c2)S1 |  | inconclusive [inhibitor, single point]
O=C(c1ccccc1)c1cnc(-c2ccccc2)s1 |  | inconclusive [inhibitor, single point]
CC[n+]1c(/C=C2\C=C(C)CC(C)(C)C2)sc2ccccc21 |  | inconclusive [inhibitor, single point]
CCc1nc2c(sc3nc4c(cc32)COC(C)(C)C4)c(=O)n1Cc1ccco1 |  | active: 2.51 µM
Nn1c(Cc2ccccc2F)n[nH]c1=S |  | inconclusive [inhibitor, single point]
CCOCCn1c(SC)nc2c1c(=O)[nH]c(=O)n2C |  | active: 14.1 µM
COc1ccc(NC(=O)Cn2c(-c3ccccc3)cc(C(C)=O)c2C)c(OC)c1 | inactive: 9.28% | 
COc1cc(OC)cc(C(=O)NCC(=O)OCc2nc3ccccc3s2)c1 | inactive: -7.53% | 
N#Cc1c(NC(=O)c2ccc(-c3ccccc3[N+](=O)[O-])o2)sc2c1CCCC2 |  | inconclusive [inhibitor, partial curve]
CC(=O)N1CCC(N(CCN2CCOCC2)C(=S)Nc2ccc(C)cc2)CC1 |  | inconclusive [inhibitor, single point]
CCCCn1nc2cc(C(=O)N(CC)c3ccc(OC)cc3)ccc2c1OCC |  | inconclusive [inhibitor, partial curve]
CC(C(=O)NC1CCCC1)N(C(=O)c1ccc(-c2ccccc2)[nH]1)c1ccccc1F (configuration not stated) |  | inconclusive [inhibitor, single point]
O=C(Nc1ccccc1)C1=C[C@@H](c2coc3ccccc3c2=O)C[C@@H](OCCCCO)O1 | inactive: -9.26% | 
Cc1cc(N2CCN(C)CC2)nc2ccc(NC(=S)NCCN3CCc4ccccc4C3)cc12 |  | inconclusive [inhibitor, single point]
CN/N=C/c1ccc(C#N)cc1 |  | inconclusive [inhibitor, single point]
CCN(Cc1ccncc1)Cc1nc(Cc2ccccc2Cl)no1 | inactive: -0.6% | 
CC1(C)NC(=O)N(Cc2cc(=O)n3ccsc3n2)C1=O |  | inconclusive [inhibitor, single point]
N#CCCSc1ncnc2c1oc1ccccc12 |  | inconclusive [inhibitor, single point]
Cc1nonc1NC(=O)CSc1nnc(-c2ccoc2C)n1CC(C)C |  | inconclusive [inhibitor, single point]
OCC1(Cc2ccccc2)CCN(CCCC2CCCC2)CC1 | inactive: -0.921% | 
COc1ccc(OC)c(Nc2cc(C)nc3ccccc23)c1 | inactive: 6.64% | 

SMILES | activity, negative = inhibition | Potency
COc1ccc(Oc2ccc3c(C(F)(F)F)cc(C(F)(F)F)nc3n2)cc1 | inactive: 17.4% | 
CC(=O)Nc1ccc(S(=O)(=O)Nc2nc3ccc([N+](=O)[O-])cc3s2)cc1 |  | active: 14.1 µM
COC(=O)Cc1ccc(OCc2ccc(Cl)nc2)cc1 |  | inconclusive [inhibitor, single point]
CCN(CC)C(=O)c1cc2c(=O)n3ccccc3nc2s1 |  | inconclusive [inhibitor, partial curve]
C[Si](C)(C/C=C/CC[C@H](O)C1=CCCCC1=O)c1ccccc1 | inactive: 2.7% | 
COc1ccc(NC(=O)CSc2nnc(C(C)C)n2N)cc1 |  | inconclusive [inhibitor, single point]
NCCCNc1ccc([N+](=O)[O-])cc1C(F)(F)F | inactive: 0.0082% | 
CCOc1ccc2[nH]c3c(N4CCN(c5ccccn5)CC4)ncnc3c2c1 |  | inconclusive [inhibitor, partial curve]
C=CCOC(=O)[C@H](O)[C@@H](O)C(=O)OCC=C | inactive: 0.397% | 
O=C(CSc1n[nH]c(-c2cccs2)n1)N1CCN(S(=O)(=O)c2ccc3ccccc3c2)CC1 |  | inconclusive [inhibitor, single point]
CCC(CC)=NNC(=O)c1ccccc1OCc1ccc(F)cc1 |  | inconclusive [inhibitor, single point]
O=C(Nc1cccc(S(=O)(=O)Nc2ccccc2Cl)c1)c1ccc(Cl)nc1 |  | inconclusive [inhibitor, single point]
Cc1ccc(/C=C/C(=O)O)cc1S(=O)(=O)NC1CCS(=O)(=O)C1 (configuration not stated) | inactive: 7.15% | 
Cc1nnc(SCC2=C(C(=O)O)N3C(=O)C(NC(=O)Cn4nc(C(F)F)c(Cl)c4C)C3SC2)s1 (configuration not stated) |  | inconclusive [inhibitor, single point]
Cc1c(N2C(=O)c3ccc(Br)cc3C2=O)c(=O)n(-c2ccccc2)n1C | inactive: 1.88% | 
CCN1CCN(CCOc2cccc(Cl)c2Cl)CC1 |  | active: 8.91 µM
BrC/C=C/CBr |  | active: 25.1 µM
COCCCNC(=O)CCn1c(=O)c2ccccc2n(CC(=O)Nc2c(C)cccc2C)c1=O |  | inconclusive [inhibitor, single point]
COc1cccc(C2=NOC(C(=O)Nc3cccnc3)C2)c1 (configuration not stated) | inactive: 6.69% | 
Cc1cc(N)ccc1-n1c(C)ccc1C |  | active: 10 µM
O=C(NNc1ccnc2cc(Cl)ccc12)C1CCCCC1 | inactive: 5.26% | 
COc1ccc(-c2cc(=O)oc3c(C)c(OCc4nn[nH]n4)ccc23)cc1 |  | inconclusive [inhibitor, partial curve]
C/C(=N\NC(=O)CSc1nc2ccccc2[nH]1)c1ccncc1 |  | inconclusive [inhibitor, single point]
CNc1oc(Cc2ccccc2)nc1S(=O)(=O)c1ccc(Cl)cc1 |  | inconclusive [inhibitor, single point]
Cc1ccc(S(=O)(=O)NC(CC(=O)NCc2ccco2)c2ccco2)cc1 (configuration not stated) |  | active: 25.1 µM
C/C=C/c1ccc(OCCCNC)c(OC)c1 |  | active: 28.2 µM

SMILES | activity, negative = inhibition | Potency
COc1cc(-c2nnc(SCC(=O)OC3CCCCC3)o2)cc(OC)c1OC |  | inconclusive [inhibitor, partial curve]
Fc1ccc(-c2nc3ccccc3c3nc4ccccc4n23)cc1 |  | inconclusive [inhibitor, partial curve]
CN(C)/C(CN1CCCCC1)=C1\N=C(c2ccccc2)OC1=O |  | inconclusive [inhibitor, single point]
Nc1ccc(N2CCN(c3cccc(Cl)c3)CC2)cc1 |  | active: 14.1 µM
CCOC(=O)N1CCN(C(=O)CCSc2ccccc2)CC1 |  | inconclusive [inhibitor, partial curve]
COc1ccc(CCNC(=O)C(=O)NCc2ccc(C)cc2)cc1OC |  | active: 3.16 µM
CCOC(=O)c1cc(-c2ccccc2)sc1NC(=O)C(C)OC(=O)c1cccnc1Cl (configuration not stated) | inactive: -13.8% | 
CN(C)C/C=C(/c1ccc(Br)cc1)c1cccnc1 | inactive: -6.2% | 
CCC(NC(=O)C1CCC1)c1ccccc1 (configuration not stated) | inactive: 2.4% | 
COCc1[nH]nc2c1C(c1ccnc3ccccc13)C(C#N)=C(N)O2 (configuration not stated) |  | inconclusive [inhibitor, partial curve]
C=C(C)COc1ccc2c(C)c(CC(=O)OC)c(=O)oc2c1C |  | inconclusive [inhibitor, partial curve]
CCOc1ccc(-c2ccc(C=O)o2)c([N+](=O)[O-])c1 |  | inconclusive [inhibitor, single point]
COc1cccc(CNC(=O)Cc2ccc(Br)cc2)c1 | inactive: 10.1% | 
O=C(Nc1ccccc1)N(Cc1ccc(Cl)cc1)CC(O)C(F)(F)F (configuration not stated) |  | inconclusive [inhibitor, single point]
Cc1cc(O)c(C2=Nc3ccccc3SC(c3ccc(Cl)cc3)C2)c(=O)o1 (configuration not stated) | inactive: 2.67% | 
O=C(Nc1ccc2oc(=O)ccc2c1)c1cc([N+](=O)[O-])ccc1N1CCOCC1 |  | inconclusive [inhibitor, partial curve, poor fit]
Cc1cc(Cl)c(S(=O)(=O)NCc2cccnc2)cc1OCC(=O)NC1CCCCC1 |  | inconclusive [inhibitor, partial curve]
Cc1cc(=O)oc2cc(Oc3ccc([N+](=O)[O-])cc3[N+](=O)[O-])ccc12 |  | inconclusive [inhibitor, partial curve]
COc1cc2c(cc1OC)C(C)N(C(=O)c1cc3c(s1)-c1ccccc1OC3)CC2 (configuration not stated) |  | inconclusive [inhibitor, partial curve]
Cc1cccc(-c2c3c(=O)n(C)c(=O)n(C)c3cn2C2CCCCC2)c1 |  | inconclusive [inhibitor, partial curve]
Cc1ccc(C2SCC(=O)N2Cc2cn3ccsc3n2)o1 (configuration not stated) |  | inconclusive [inhibitor, single point]
COC(=O)CCC(=O)Nc1ccc(S(=O)(=O)N2CCCCCC2)cc1 |  | inconclusive [inhibitor, single point]
CC(=O)N1c2ccccc2C2(O)N=C(C)SC12 (configuration not stated) | inactive: 1.57% | 
O=C(NS(=O)(=O)Oc1cccc(Cl)c1Cl)OC[C@@H]1CCCN2CCCCC12 (some centres not stated) | inactive: 13% | 
Nc1nc(Br)c2c(F)cccc2c1-c1ccc(F)cc1 |  | inconclusive [inhibitor, partial curve]
